Test results: the supplement of paper PMC12067230;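 active = nucleation score significantly above 0 at FDR 0.05; inactive = not significantly above 0 or absent from output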
The data scatter; read single values as rough.

test: amyloid nucleation score relative to library mode (yeast Sup35 reporter selection) (log enrichment difference); higher = more amyloid nucleation; sequences are the first 22 residues of the Bri2 peptide extended by up to 12 random residues; details: random library (experiment): 1
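Note: [psi-pin-] Saccharomyces cerevisiae expressing SupN fusions, induced by 100 µM Cu2SO4, selected 7 d at 30 °C without adenine and uracil, scored by deep sequencing of output versus input.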

Sequence	amyloid nucleation score
EASNCFAIRHFENKFAVETLICLFKLQEVLHVRR	inactive
EASNCFAIRHFENKFAVETLICCIVVGDESSFCD	8.28
EASNCFAIRHFENKFAVETLICEGFIVRIVLSDE	inactive
EASNCFAIRHFENKFAVETLICPLFDLLYINLKG	6.3
EASNCFAIRHFENKFAVETLICTSFATPGPTGWC	3.49
EASNCFAIRHFENKFAVETLICWLVSEKI	-0.345
EASNCFAIRHFENKFAVETLICALVKLGSRGGWR	inactive
EASNCFAIRHFENKFAVETLICCFR	7.15
EASNCFAIRHFENKFAVETLICLGIDLGGSVRSC	3.15
EASNCFAIRHFENKFAVETLICFIHC	4.98
EASNCFAIRHFENKFAVETLICLDHISNRGEC	inactive
EASNCFAIRHFENKFAVETLICVYKHYFGRARMR	inactive
EASNCFAIRHFENKFAVETLICRARVA	inactive
EASNCFAIRHFENKFAVETLICYTFC	8.07
EASNCFAIRHFENKFAVETLICRRKEHLCRCISL	inactive
EASNCFAIRHFENKFAVETLICQYVRSLWLRLVG	inactive
EASNCFAIRHFENKFAVETLICHRCYNYVCSASR	3.29
EASNCFAIRHFENKFAVETLICVGWEGHTSRMSG	-0.324
EASNCFAIRHFENKFAVETLICTCGALWKGSRLA	inactive

Sequence	amyloid nucleation score
EASNCFAIRHFENKFAVETLICCRLKLHTYVNRT	inactive
EASNCFAIRHFENKFAVETLICVVGCAARLVAWV	inactive
EASNCFAIRHFENKFAVETLICLRCVVNACFIEC	2.46
EASNCFAIRHFENKFAVETLICMWWHRSISLGLL	inactive
EASNCFAIRHFENKFAVETLICTISFRSGNIWAL	inactive
EASNCFAIRHFENKFAVETLICCLSGILAPVTGA	6.24
EASNCFAIRHFENKFAVETLICMDPTVRS	inactive
EASNCFAIRHFENKFAVETLICVYVNLMDWYDFS	inactive
EASNCFAIRHFENKFAVETLICDKRQDTLTVLAV	inactive
EASNCFAIRHFENKFAVETLICQMGLRQCYSRST	inactive
EASNCFAIRHFENKFAVETLICPCVRPTAWDRSQ	8.05
EASNCFAIRHFENKFAVETLICGMEGSAVWRLL	inactive
EASNCFAIRHFENKFAVETLICDER	inactive
EASNCFAIRHFENKFAVETLICRVEGNPNEKQPV	5.37
EASNCFAIRHFENKFAVETLICKAQITQCCWKPL	2.77
EASNCFAIRHFENKFAVETLICTYVVGCSTPTCI	0.00985
EASNCFAIRHFENKFAVETLICTECCRQRVSYRS	3.26
EASNCFAIRHFENKFAVETLICWCHKC	inactive
EASNCFAIRHFENKFAVETLICASVMVQECNRRY	0.466

Sequence	amyloid nucleation score
EASNCFAIRHFENKFAVETLICVSTVSRSVEFKR	3.09
EASNCFAIRHFENKFAVETLICRDYVNLDFSDRT	5.03
EASNCFAIRHFENKFAVETLICHFFS	8.88
EASNCFAIRHFENKFAVETLICAVW	inactive
EASNCFAIRHFENKFAVETLICGMWSRSASELWY	5.11
EASNCFAIRHFENKFAVETLICVVVWHVVGYV	inactive
EASNCFAIRHFENKFAVETLICRYIRA	3.43
EASNCFAIRHFENKFAVETLICFGNEDSSSICYW	6.86
EASNCFAIRHFENKFAVETLICRVVLHFVHPRRE	inactive
EASNCFAIRHFENKFAVETLICAFGVKSCVMCW	inactive
EASNCFAIRHFENKFAVETLICLVGIRRFTCTRR	inactive
EASNCFAIRHFENKFAVETLICTSWHRNRHGFAL	0.194
EASNCFAIRHFENKFAVETLICRSKQKLVRSENV	inactive
EASNCFAIRHFENKFAVETLICGRCVKLFDVRWR	inactive
EASNCFAIRHFENKFAVETLICRHYMNWASWESR	1.3
EASNCFAIRHFENKFAVETLICEAMEHPSGSTFL	inactive
EASNCFAIRHFENKFAVETLICPFTASRRAQGQD	1.88
EASNCFAIRHFENKFAVETLICRGACALDRRVPW	0.262

same assay, conditions: random library (experiment): 2

Sequence	amyloid nucleation score
EASNCFAIRHFENKFAVETLICVLGIYTDMRYVQ	2.73
EASNCFAIRHFENKFAVETLICFTSLFLVRYI	inactive
EASNCFAIRHFENKFAVETLICFCISVR	5.02
EASNCFAIRHFENKFAVETLICILSIAYFFEAPE	inactive
EASNCFAIRHFENKFAVETLICNGSASGRLGRHE	inactive
EASNCFAIRHFENKFAVETLICFNRVNCFRYVAW	inactive
EASNCFAIRHFENKFAVETLICFIFFKHRLVYWS	inactive
EASNCFAIRHFENKFAVETLICVLISF	5.01
EASNCFAIRHFENKFAVETLICYVHYSLCGLSGE	6
EASNCFAIRHFENKFAVETLICLLIMFRTSCLFS	inactive
EASNCFAIRHFENKFAVETLICIA	inactive
EASNCFAIRHFENKFAVETLICTCMGSLSLYKV	2.97
EASNCFAIRHFENKFAVETLICHYFNRVLSIGG	1.62
EASNCFAIRHFENKFAVETLICGIFYHLI	inactive
EASNCFAIRHFENKFAVETLICCSTCSFLCTGDR	8.27
EASNCFAIRHFENKFAVETLICLYMPHSSHYPYR	6.28

Sequence	amyloid nucleation score
EASNCFAIRHFENKFAVETLICMRFWFSWSSVLH	inactive
EASNCFAIRHFENKFAVETLICGSVFRVYCPHSW	7.34
EASNCFAIRHFENKFAVETLICDDGLIRLFNEHW	inactive
EASNCFAIRHFENKFAVETLICWCRDDVLRVDYK	inactive
EASNCFAIRHFENKFAVETLICDNLVLIYGFSEV	6.46
EASNCFAIRHFENKFAVETLICHCYSSDSESLGK	6.72
EASNCFAIRHFENKFAVETLICVYSSFN	4.28
EASNCFAIRHFENKFAVETLICAVEVLC	inactive
EASNCFAIRHFENKFAVETLICVQPYYYIKELAS	0.473
EASNCFAIRHFENKFAVETLICRVGDRVKELFLR	inactive
EASNCFAIRHFENKFAVETLICIR	inactive
EASNCFAIRHFENKFAVETLICRVHLAFRWYRGR	inactive
EASNCFAIRHFENKFAVETLICCPWVSGFCEHRF	8.6
EASNCFAIRHFENKFAVETLICFSELGGCSYLFH	4.18
EASNCFAIRHFENKFAVETLICGIRLLWKRRAVR	inactive
EASNCFAIRHFENKFAVETLICFGRNQGHRGMSG	3.82

same assay, conditions: random library (experiment): 3

Sequence	amyloid nucleation score
EASNCFAIRHFENKFAVETLICGKAPRDMWTFLG	0.0556
EASNCFAIRHFENKFAVETLICWMAIRDACKPSY	inactive
EASNCFAIRHFENKFAVETLICVSGVGRWVARLA	inactive
EASNCFAIRHFENKFAVETLICHLCMECRIAVPS	1.98
EASNCFAIRHFENKFAVETLICNERWRVHVNTMR	4.14
EASNCFAIRHFENKFAVETLICRASTHTFEKVIC	0.0274
EASNCFAIRHFENKFAVETLICGSSVRSLIRWDW	inactive
EASNCFAIRHFENKFAVETLICLINTCGCGRCLD	7.87
EASNCFAIRHFENKFAVETLICDYGDCVVTWNWG	inactive
EASNCFAIRHFENKFAVETLICVFML	6.46
EASNCFAIRHFENKFAVETLICGVERTACMCRDG	4.42
EASNCFAIRHFENKFAVETLICRHQVL	inactive
EASNCFAIRHFENKFAVETLICAKVSQT	inactive
EASNCFAIRHFENKFAVETLICLNGLVRGMLSML	1.05
EASNCFAIRHFENKFAVETLICTTWNRITAVRSY	inactive
EASNCFAIRHFENKFAVETLICQTRQGRWDSGRM	3.9

Sequence	amyloid nucleation score
EASNCFAIRHFENKFAVETLICIYVGSLYSHSCV	inactive
EASNCFAIRHFENKFAVETLICEYRWQWVENV	inactive
EASNCFAIRHFENKFAVETLICFGTCVRPALSTV	inactive
EASNCFAIRHFENKFAVETLICGLWYSVRSMDVL	inactive
EASNCFAIRHFENKFAVETLICFIINPQYSGGVS	7.62
EASNCFAIRHFENKFAVETLICLMLR	-0.489
EASNCFAIRHFENKFAVETLICVRRVLLWYVLCP	inactive
EASNCFAIRHFENKFAVETLICATQYLKSMGIGT	inactive
EASNCFAIRHFENKFAVETLICASQPMVDEVGVE	inactive
EASNCFAIRHFENKFAVETLICQEFTLAPEGMLR	3.47
EASNCFAIRHFENKFAVETLICRHAVRQDVAVWW	inactive
EASNCFAIRHFENKFAVETLICGHKRSSPSILFM	inactive
EASNCFAIRHFENKFAVETLICTGMGGVCGAVGG	5.53
EASNCFAIRHFENKFAVETLICQMGCGWGRYWRR	-0.396
EASNCFAIRHFENKFAVETLICKPLEENVFSCWV	0.0748
EASNCFAIRHFENKFAVETLICRVSGMWVRRKMV	inactive
